The list shows a part of the results. Single values are uncertain, as repeats are few or missing.
How the values were obtained:
Assay in all cases: cell count relative to DMSO control; melanoma cells; higher = more viable cells
Details in all cases: library dose: standard library concentration; 72 h
G361 = system: G361
IPC-298 = system: IPC-298
IST-MEL1 = system: IST-MEL1
LB2518-MEL = system: LB2518-MEL
LOXIMVI = system: LOXIMVI
MEL-HO = system: MEL-HO
MZ2-MEL = system: MZ2-MEL
MeWo = system: MeWo
RPMI7951 = system: RPMI7951
RVH-421 = system: RVH-421
SkMel28 = system: SkMel28
SkMel2 = system: SkMel2
SkMel30 = system: SkMel30
SkMel5 = system: SkMel5
UACC257 = system: UACC257
UACC62 = system: UACC62
WM115 = system: WM115
WM1716 = system: WM1716
WM1745 = system: WM1745
WM3526 = system: WM3526
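Also: cells treated in 1,536-well plates, then fixed and DAPI-stained, with nuclei counted from automated high-throughput microscope images.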

| Compound | cell count (G361) | cell count (IPC-298) | cell count (IST-MEL1) | cell count (LB2518-MEL) | cell count (LOXIMVI) | cell count (MEL-HO) | cell count (MZ2-MEL) | cell count (MeWo) | cell count (RPMI7951) | cell count (RVH-421) | cell count (SkMel28) | cell count (SkMel2) | cell count (SkMel30) | cell count (SkMel5) | cell count (UACC257) | cell count (UACC62) | cell count (WM115) | cell count (WM1716) | cell count (WM1745) | cell count (WM3526) |
| --- | --- | --- | --- | --- | --- | --- | --- | --- | --- | --- | --- | --- | --- | --- | --- | --- | --- | --- | --- | --- |
| COc1cc([C@@H]2c3cc4c(cc3[C@@H](O[C@@H]3O[C@@H]5CO[C@@H](C)O[C@H]5[C@H](O)[C@H]3O)[C@H]3COC(=O)[C@H]23)OCO4)cc(OC)c1O [etoposide] + NC(=O)c1ccc(N(C(N)=O)c2c(F)cccc2F)nc1-c1ccc(F)cc1F [VX702] (first compound 0.1 µM, partner dose 2 µM) | 87.9% | 72.5% | 99.5% | 108% | 118% | 83.1% | 88.8% | 96.8% | 101% | 131% | 95.3% | 100% | 108% | 86.3% | 104% | 74.2% | 84.7% | 72.9% | 86.6% | 107% |
| Cn1cnc2c(F)c(Nc3ccc(Br)cc3Cl)c(C(=O)NOCCO)cc21 [selumetinib] + Cn1sc(=O)n(Cc2ccccc2)c1=O [TDZD-8] (first compound 0.075 µM, partner dose 2 µM) | 71.8% | 60.4% | 87% | 40% | 96.2% | 101% | 86% | 79.6% | 108% | 76.4% | 37.6% | 51.5% | 71.2% | 93.2% | 114% | 55.1% | 64.1% | 93.2% | 76.5% | 68.3% |
| C[C@]1(O)C[C@@H](c2nc(-c3ccc4ccc(-c5ccccc5)nc4c3)c3c(N)nccn32)C1 + O=C(Nc1cccc(Cl)c1)Nc1ncc(CCNc2ncnc3ccsc23)s1 [SNS314] (first compound 2 µM, partner dose 0.004 µM) | 69.5% | 81.5% | 56.3% | 76.7% | 63.1% | 83% | 85.9% | 50.8% | 34.4% | 75.8% | 56.9% | 77.6% | 94.3% | 70% | 57.5% | 58.4% | 38.6% | 48.7% | 46.5% | 62.4% |
| CCN(CC)CCNC(=O)c1c(C)[nH]c(/C=C2\C(=O)Nc3ccc(F)cc32)c1C [sunitinib] + CN(NC(=O)CC(=O)NN(C)C(=S)c1ccccc1)C(=S)c1ccccc1 [STA4783] (first compound 2 µM, partner dose 0.03 µM) | 34% | 68.4% | 12% | 13.6% | 93.3% | 93.8% | 114% | 13.2% | 76.6% | 17.5% | 35.6% | 69.8% | 54.8% | 23.4% | 96.8% | 38.7% | 21.9% | 70.4% | 27.3% | 55.1% |
| CCN(CC)CCNC(=O)c1c(C)[nH]c(/C=C2\C(=O)Nc3ccc(F)cc32)c1C [sunitinib] + Clc1ccc(Nc2nnc(Cc3ccncc3)c3ccccc23)cc1 [vatalanib] (first compound 2 µM, partner dose 10 µM) | 64.2% | 55% | 78.3% | 65% | 63.7% | 50.4% | 68.3% | 49.6% | 58.6% | 67.2% | 41.4% | 61.8% | 60.2% | 42.6% | 81.4% | 44.7% | 67.3% | 88.3% | 32.1% | 44.2% |
| Cn1cnc2c(F)c(Nc3ccc(Br)cc3Cl)c(C(=O)NOCCO)cc21 [selumetinib] + O=C(Nc1cccc(Cl)c1)Nc1ncc(CCNc2ncnc3ccsc23)s1 [SNS314] (first compound 0.075 µM, partner dose 0.004 µM) | 61.8% | 57.1% | 56.2% | 48% | 76.1% | 57.1% | 68.8% | 60.7% | 77.1% | 65.2% | 55.8% | 53.2% | 61.1% | 69% | 77% | 68.2% | 57.2% | 78.2% | 70.2% | 62.8% |
| Cn1cnc2c(F)c(Nc3ccc(Br)cc3Cl)c(C(=O)NOCCO)cc21 [selumetinib] + COc1ccc(C2=N[C@@H](c3ccc(Cl)cc3)[C@@H](c3ccc(Cl)cc3)N2C(=O)N2CCNC(=O)C2)c(OC(C)C)c1 [Nutlin-3] (first compound 0.075 µM, partner dose 0.5 µM) | 53% | 45.6% | 86.2% | 39.1% | 86.4% | 88.2% | 52.5% | 83.9% | 109% | 55.2% | 49.5% | 40.1% | 47.2% | 63.1% | 86.5% | 60.9% | 81.2% | 75.1% | 73.1% | 58.1% |
| COc1cc([C@@H]2c3cc4c(cc3[C@@H](O[C@@H]3O[C@@H]5CO[C@@H](C)O[C@H]5[C@H](O)[C@H]3O)[C@H]3COC(=O)[C@H]23)OCO4)cc(OC)c1O [etoposide] + O=c1[nH]nc(Sc2ncc([N+](=O)[O-])s2)n1-c1ccc2c(c1)OCCO2 [BI78D3] (first compound 0.1 µM, partner dose 1 µM) | 107% | 66.4% | 101% | 85.2% | 94.1% | 95.5% | 75.3% | 80.2% | 79.6% | 93.5% | 55.3% | 61.2% | 90.7% | 69.4% | 96.3% | 59.5% | 72.8% | 64.7% | 70.8% | 73% |
| COc1cc([C@@H]2c3cc4c(cc3[C@@H](O[C@@H]3O[C@@H]5CO[C@@H](C)O[C@H]5[C@H](O)[C@H]3O)[C@H]3COC(=O)[C@H]23)OCO4)cc(OC)c1O [etoposide] + Clc1ccc(Nc2nnc(Cc3ccncc3)c3ccccc23)cc1 [vatalanib] (first compound 0.1 µM, partner dose 10 µM) | 75.3% | 60.9% | 70.7% | 61.9% | 45.5% | 45.7% | 54.8% | 57% | 86.3% | 26% | 63.6% | 68.8% | 92.5% | 67.4% | 50.1% | 60.1% | 66.7% | 58.7% | 82.8% | 73.1% |
| Cn1cnc2c(F)c(Nc3ccc(Br)cc3Cl)c(C(=O)NOCCO)cc21 [selumetinib] + Cn1cncc1[C@@](N)(c1ccc(Cl)cc1)c1ccc2c(c1)c(-c1cccc(Cl)c1)cc(=O)n2C [tipifarnib] (first compound 0.075 µM, partner dose 0.05 µM) | 68.9% | 63.9% | 80.8% | 43.8% | 80.4% | 82.8% | 66.8% | 63.4% | 80.6% | 89.5% | 43% | 36.9% | 53.1% | 66.7% | 91.4% | 54.5% | 63.1% | 69.1% | 74.4% | 49% |
| COc1cc([C@@H]2c3cc4c(cc3[C@@H](O[C@@H]3O[C@@H]5CO[C@@H](C)O[C@H]5[C@H](O)[C@H]3O)[C@H]3COC(=O)[C@H]23)OCO4)cc(OC)c1O [etoposide] + Cn1c(=O)n(-c2ccc(C(C)(C)C#N)cc2)c2c3cc(-c4cnc5ccccc5c4)ccc3ncc21 [NVP-BEZ235] (first compound 0.1 µM, partner dose 0.02 µM) | 60.3% | 63.9% | 88.1% | 73.1% | 54.2% | 60.5% | 62.5% | 63.7% | 61.6% | 79.1% | 41.4% | 49% | 66.3% | 69.9% | 94.1% | 69% | 66.2% | 64.4% | 73.3% | 72.9% |
| C[C@]1(O)C[C@@H](c2nc(-c3ccc4ccc(-c5ccccc5)nc4c3)c3c(N)nccn32)C1 + Nc1ccn([C@@H]2O[C@H](CO)[C@@H](O)C2(F)F)c(=O)n1 [gemcitabine] (first compound 2 µM, partner dose 0.002 µM) | 74.8% | 32.9% | 46.2% | 59.1% | 69.3% | 65.9% | 57% | 38.7% | 61.4% | 228% | 79.3% | 77.4% | 90% | 65.3% | 96.3% | 79.8% | 94.2% | 61.4% | 45.8% | 82.2% |
